Measurements from paper PMC12136788.
This is one part of the list.

B1: chr15:79186471:79186472:+_ENSG00000185787_ENST00000426013|hu_hu|FALSE|FALSE (ssRNA)
RNA: GGGAGUUCUACAGUCCGACGAUCGGGUGCAUCGGGAUGAUCUGCAAGAAUUUCAGCAUACUGUGGUCUCUCAAAUUUAUAGAGUAGCUGGGUACCCAACAUUACGUUGAAGUAUUCUUUUAUCCCUGCCACAACUUCAUUAACCAACAGAGGAUUGAGCAUCA
B2: chr8:81716360:81716361:+_ENSMUSG00000071064_ENSMUST00000098614|mus_hu|motif|central (ssRNA)
RNA: GGGAGUUCUACAGUCCGACGAUCCAAGUAGGCUCCCCAUCCAUGGCGGGAUGACUGGCAAAGGGAGGUGUAGCACACCGGCGGGGUGUGGGGAAGAGGGGCUGGCGUGGAGGGGACUGAGGAGACCAUGGUGUGGACAGACAGCAACAGAGGAUUGAGCAUCA
B3: chr2:48026839:48026840:+_ENSG00000116062_ENST00000540021|hu_hu|hu_hu_hu_mus_False|58_78 (ssRNA)
RNA: GGGAGUUCUACAGUCCGACGAUCAUAGUGAGCCACUAGCGUCCUAAAUCUGGAACAAUGGCGAUCAUCCGAAAACUGACCUAUGAAAAACUUGCCCAGUGAAGUGUCCACAAAGCAAACACCAUACACACGAGUGUGACCAGACAACAGAGGAUUGAGCAUCA
B4: 139285311_139288915_2321_CDS_ENSG00000064393_ENST00000406875|human|control|control (ssRNA)
RNA: GGGAGUUCUACAGUCCGACGAUCAUUAUAAUGGCUUCCGUGAGCAUGCGUAUUUCUCCAGUCCGCCAGCUGCUGGGUGCCUGCCAUGGUCUCGGGAAUCACGGUGGCAUGCUGCACUGAUGUGUGGGUGGCCACUCCAGUCAGCAACAGAGGAUUGAGCAUCA
B5: 19986169_19991572_1668_CDS_ENSMUSG00000002428_ENSMUST00000002502|mouse|control|control (ssRNA)
RNA: GGGAGUUCUACAGUCCGACGAUCUUUUGAAAGCCAGGCUGAAUCUCUAAUACGAUCAGGACCAUAAUAAACAUAAAAAUUCAAGUGCACUUCUGAUUUUACAUGUUGUCCAAACUGGUCAAUCCAGUUGCUGAGCACAGAGAGCAACAGAGGAUUGAGCAUCA
B6: chr20:16721599:16721600:+_ENSG00000125870_ENST00000246071|hu_mus|FALSE|FALSE (ssRNA)
RNA: GGGAGUUCUACAGUCCGACGAUCCACAUGUUACUUCUUGGCAUAGGUGAUCUUCAUGGCAUGGGACGGUGUAAUCUUAAACCCCUGCAGAGCAUCUCUGGCAGCUCCAGCCUGACCAUCAUUCUCAAAUUCUACAAAUGCAAUCAACAGAGGAUUGAGCAUCA
B7: chr2:73479818:73479819:+_ENSG00000135624_ENST00000258091|hu_mus|FALSE|FALSE (ssRNA)
RNA: GGGAGUUCUACAGUCCGACGAUCAGCUGCUGUCAGAGCGUUGAUGCGCACCAUGGCUGGCUCCCACACAAAUGCCUGGAAGUUGUCGGCGAUGUUCUCAUUGUUGAUGUCCACCCCAUACCACAUACCUCCCUGUGCGUGUCGCAACAGAGGAUUGAGCAUCA
B8: chr19:37063429:37063430:+_ENSMUSG00000040565_ENSMUST00000099494|mus_mus|motif|central (ssRNA)
RNA: GGGAGUUCUACAGUCCGACGAUCCAUAGCAUCCCAAAGAUGUGGCAACUUCACUGCCAUUUCAGCACCAAAAUGCUUCACGGUAGUUGUUAAGGCAAAUUCAGCUCCUCUCCGCUGUACCAGGUAAGGCUUCUGACCCUCAUCCAACAGAGGAUUGAGCAUCA
B9: chr19:16212804:16212805:+_ENSG00000167460_ENST00000300933|hu_mus|hu_hu_hu_mus_False|1_68 (ssRNA)
RNA: GGGAGUUCUACAGUCCGACGAUCAACAAUUCUGGAGUGAAGGAAAGAUGUAACAUGGAACAGCAUUCCAUCUAUUACAGAAGGCACAUGGGCAACAAUGAUCACCCCAGCAUUCUCGCUUGGAAUGCUUAAAGACAGAUGUUUCAACAGAGGAUUGAGCAUCA
B10: chr7:75932113:75932114:+_ENSG00000106211_ENST00000248553|hu_hu|hu_hu_hu_mus_False|88_88 (ssRNA)
RNA: GGGAGUUCUACAGUCCGACGAUCCUGCGACCACUCAUCGGGCAACCGGGGCAGCCCGAAAGCUUGAUCGAAGAGGCGGCUGUGUGCAGGGUACCAGUCCCGGAAUGGUUCCCAGCUCGGGCUCCGCAGCAGCGAGAAGGGCACCAACAGAGGAUUGAGCAUCA
B11: 112363417_112363537_2605_3pUTR_ENSMUSG00000074748_ENSMUST00000099276|mouse|control|control (ssRNA)
RNA: GGGAGUUCUACAGUCCGACGAUCACAGUCUCAAGGCUCAAGCACUAUAAUUGCCUCAACUCUUUGAGUAUAAUCCAAAUUAGUCCACACACUUCAAAUAGCUCCUGGGAGAAGGAAGAUACAUACACAAUAGGAUUAGAAAUGCAACAGAGGAUUGAGCAUCA
B12: chr5:15937888:15937889:+_ENSG00000183580_ENST00000504595|hu_hu|FALSE|FALSE (ssRNA)
RNA: GGGAGUUCUACAGUCCGACGAUCGCAGUGAAGUGCUUUGGCCAAGGUCAUAGUCAUUGACAGAGCUGGGGGAGGACUGCAUGUCCUUCCCCAGCUGUUUGCUGUAAUGAAUUUUUUAAAAAGGCCUGAAAAGUAUUUUGCCUACAACAGAGGAUUGAGCAUCA
B13: chr4:147379129:147379130:-_ENSMUSG00000029016_ENSMUST00000137724|mus_mus|motif|central (ssRNA)
RNA: GGGAGUUCUACAGUCCGACGAUCUGUCCUAGAGGAGCAUGGGCCAGGGUGGGUAUGCCUGGACCCUGUCCACUCUGGGCGGAACUGAUGGUCACACACACACACACACACACUCGAUGGACAAAUCACAACAGGACUGGCUUGCAACAGAGGAUUGAGCAUCA
B14: chr15:80081215:80081216:+_ENSMUSG00000022412_ENSMUST00000023048|mus_mus|FALSE|FALSE (ssRNA)
RNA: GGGAGUUCUACAGUCCGACGAUCCUCUGAUAAAACAGUUGCAGCCGGCGCCUCCAGUGUUGGUCAAUGCCCCGUCCCCACGAUCAAAAGCCUUAGCUCAGAUAAAGAGGAGUUGCUUAGGGUAGGGAGAGGAGAUAAGCUUGUCAACAGAGGAUUGAGCAUCA

Molecular target: T1, UNK ZnF1-3 (human, UniProt Q9C0B0 31-174)
T1 sequence: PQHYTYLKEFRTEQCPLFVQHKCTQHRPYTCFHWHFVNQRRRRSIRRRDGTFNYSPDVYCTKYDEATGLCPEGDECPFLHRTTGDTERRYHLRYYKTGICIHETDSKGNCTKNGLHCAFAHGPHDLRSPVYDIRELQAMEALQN
Experiment: nsRBNS (natural sequence RNA bind-n-seq); RBNS binding buffer (assumed for nsRBNS): 25 mM Tris pH 7.5, 150 mM KCl, 3 mM MgCl2, 0.01% Triton X-100, 500 ug/ml BSA, 20 U/ml SUPERase-In, 4 C; UNK is unkempt and MSI1 is Musashi-1; names of the RNAs are library labels; protein concentration not given here; high values mean tight binding

Row | Binder | binding signal [enrichment R]
1 | B1 | 1.19
2 | B2 | 2.15
3 | B3 | 1.35
4 | B4 | 0.48
5 | B5 | 1.67
6 | B6 | 1.41
7 | B7 | 1.14
8 | B8 | 0.821
9 | B9 | 1.04
10 | B10 | 1.35
11 | B11 | 1.67
12 | B12 | 0.88
13 | B13 | 1.43
14 | B14 | 1.15
